Among the data in the antibiotic and cytotoxicity screens of Wong et al. (2023) are cytotoxicity call and growth inhibition call values, retold here.

The subject of experiment [1] is HSkMC (human skeletal muscle cells). Briefly: cytotoxicity call (relative viability < 0.9). The note with it: 10 µM.
Experiment [2] deals with HepG2. Briefly: cytotoxicity call (relative viability < 0.9). The settings on record: 10 µM.
Experiment [3] deals with S. aureus RN4220. Briefly: growth inhibition call (relative growth <= 0.2). The settings on record: 50 µM.

The list shows a part of the results.

Turning to `O=NN(CCCl)C(=O)NCCCl`, the cytotoxicity call in experiment [1] and in experiment [2] was “inactive” each time. Also, the growth inhibition call in experiment [3] was “inactive”.
With `Cc1noc(C)c1NC(=O)Nc1cccc2c1O[C@H](CN(C)Cc1ccc(C(F)(F)F)cc1)[C@H](C)CN([C@H](C)CO)C2=O`, the cytotoxicity call in experiment [1] and in experiment [2] was “inactive” throughout. In experiment [3], the growth inhibition call is “inactive”.
Regarding `Cc1noc(C)c1S(=O)(=O)N(C)C[C@H]1Oc2ccc(N(C)C)cc2CC(=O)N([C@@H](C)CO)C[C@H]1C`, the cytotoxicity call in experiment [1] and in experiment [2] was “inactive” in each case. For the same compound, the growth inhibition call in experiment [3] is “inactive”.
For the compound `COc1ccc(S(=O)(=O)Nc2cccc3c2O[C@@H](CN(C)S(=O)(=O)c2ccc(OC)cc2)[C@@H](C)CN([C@@H](C)CO)C3=O)cc1`, the cytotoxicity call in experiment [1] and in experiment [2] was “inactive” throughout. Further, the growth inhibition call in experiment [3] was “inactive”.
As to `COc1ccc(NC(=O)N(C)C[C@@H]2Oc3ncc(C#C[C@@H](C)O)cc3C(=O)N([C@H](C)CO)C[C@H]2C)cc1`, the cytotoxicity call in experiment [1] and in experiment [2] was “inactive” in each case. For the same compound, the growth inhibition call in experiment [3] was “inactive”.
Regarding `C[C@@H]1CN([C@@H](C)CO)S(=O)(=O)c2ccc(C#CC3(O)CCCC3)cc2O[C@@H]1CN(C)C(=O)c1ccncc1`, the cytotoxicity call in experiment [1] and in experiment [2] was “inactive” each time. Also, the growth inhibition call in experiment [3] was “inactive”.
`C[C@H](CO)N1C[C@H](C)[C@@H](CN(C)C(=O)Nc2cccc3ccccc23)Oc2c(NS(=O)(=O)c3ccccc3)cccc2C1=O`: the cytotoxicity call in experiment [1] and in experiment [2] was “inactive” in each case. In addition, the growth inhibition call in experiment [3] was “inactive”.
Turning to `CC(C)=CC[N+]1(C)CCCCC1`, the cytotoxicity call in experiment [1] and in experiment [2] was “inactive” each time. For the same compound, the growth inhibition call in experiment [3] is “inactive”.
Regarding `C[C@@H]1CN([C@H](C)CO)C(=O)c2cccc(NS(=O)(=O)c3cccs3)c2O[C@H]1CN(C)C(=O)Nc1cccc2ccccc12`, the cytotoxicity call in experiment [1] was “active”. For the same compound, the cytotoxicity call in experiment [2] is “inactive”. In experiment [3], the growth inhibition call was “inactive”.
In the case of `COc1ccccc1C#Cc1ccc2c(c1)O[C@@H](CN(C)Cc1cccnc1)[C@@H](C)CN([C@@H](C)CO)S2(=O)=O`, the cytotoxicity call in experiment [1] was “inactive”. For the same compound, the cytotoxicity call in experiment [2] was “active”. Moreover, in experiment [3], the growth inhibition call is “inactive”.
For the compound `C[C@@H]1CN([C@H](C)CO)C(=O)CCCn2cc(nn2)CO[C@H]1CN(C)C(=O)Nc1cccc(Oc2ccccn2)c1`, the cytotoxicity call in experiment [1] and in experiment [2] was “inactive” throughout. The growth inhibition call in experiment [3] was “inactive”.
For `C[C@H]1CN([C@@H](C)CO)S(=O)(=O)c2ccc(C#Cc3ccncc3)cc2O[C@H]1CN(C)S(=O)(=O)c1ccc(F)cc1`, the cytotoxicity call in experiment [1] is “inactive”. Also, in experiment [2], the cytotoxicity call is “active”. In experiment [3], the growth inhibition call is “inactive”.
Consider `COC(=O)c1c2oc(c1C(=O)OC)C(=O)N[C@@H](Cc1ccccc1)Cn1cc(nn1)[C@@H](Cc1ccccc1)NC(=O)N[C@H](CO)CC2`, for which the cytotoxicity call in experiment [1] and in experiment [2] was “inactive” throughout. Also, in experiment [3], the growth inhibition call is “inactive”.
For `Cc1noc(C)c1S(=O)(=O)N(C)C[C@@H]1OCCCC[C@H](C)Oc2ccc(NS(C)(=O)=O)cc2C(=O)N([C@H](C)CO)C[C@H]1C`, the cytotoxicity call in experiment [1] and in experiment [2] was “inactive” each time. In experiment [3], the growth inhibition call was “inactive”.
Turning to `CCCNC(=O)[C@@H]1[C@@H](CO)[C@@H]2Cn3c(ccc(-c4ccccc4OC)c3=O)[C@@H]2N1S(C)(=O)=O`, the cytotoxicity call in experiment [1] and in experiment [2] was “inactive” in each case. Also, the growth inhibition call in experiment [3] was “inactive”.
With `NNC(=O)[C@H]1CCCNC1=O`, in experiment [1], the cytotoxicity call was “inactive”. The cytotoxicity call in experiment [2] is “active”. The growth inhibition call in experiment [3] is “inactive”.
For the compound `COc1ccc2c(c1)[C@@H](NCC=C(C)C)[C@H](C)[C@H]2c1ccccc1`, the cytotoxicity call in experiment [1] and in experiment [2] was “inactive” in each case. In addition, the growth inhibition call in experiment [3] is “inactive”.
Regarding `C[C@@H]1CCCCO[C@@H](CN(C)S(=O)(=O)c2ccccc2)[C@@H](C)CN([C@H](C)CO)C(=O)c2cc(NC(=O)c3ccccc3)ccc2O1`, the cytotoxicity call in experiment [1] and in experiment [2] was “inactive” in each case. In experiment [3], the growth inhibition call is “inactive”.
For `C[C@H]1CN([C@@H](C)CO)C(=O)c2cccc(NC(=O)Nc3ccc(C(F)(F)F)cc3)c2O[C@H]1CN(C)C(=O)Nc1ccc(F)cc1`, the cytotoxicity call in experiment [1] is “inactive”. Also, the cytotoxicity call in experiment [2] is “active”. The growth inhibition call in experiment [3] was “inactive”.
For the compound `CO[C@H]1CN(C)C(=O)c2ccc(NC(=O)Nc3ccc(Cl)cc3)cc2OC[C@H](C)N(C(=O)Nc2c(C)noc2C)C[C@H]1C`, the cytotoxicity call in experiment [1] and in experiment [2] was “inactive” in each case. The growth inhibition call in experiment [3] was “inactive”.
In the case of `CC(=O)NCC(=O)N1CCC2(CC1)CN(c1cnn(C)c1)C(=O)CO2`, the cytotoxicity call in experiment [1] and in experiment [2] was “inactive” throughout. Also, the growth inhibition call in experiment [3] is “inactive”.
As for `COCC#Cc1cnc2c(c1)C(=O)N([C@H](C)CO)C[C@@H](C)[C@@H](CN(C)C(=O)Nc1ccc(OC)cc1)O2`, the cytotoxicity call in experiment [1] and in experiment [2] was “inactive” each time. Besides, the growth inhibition call in experiment [3] is “inactive”.
As for `C[C@@H]1CN([C@@H](C)CO)C(=O)CCCn2nncc2CO[C@H]1CN(C)C(=O)Nc1ccc(C(F)(F)F)cc1`, the cytotoxicity call in experiment [1] and in experiment [2] was “inactive” each time. In experiment [3], the growth inhibition call was “inactive”.
For `O=C1OCC=C[C@H]2O[C@@]34C=CCN(c5ccc6ccccc6c5)C(=O)[C@H]3N(CCCCCCO)C(=O)[C@@H]4[C@@H]12`, the cytotoxicity call in experiment [1] and in experiment [2] was “inactive” in each case. Moreover, the growth inhibition call in experiment [3] was “inactive”.
In the case of `C[C@@H]1CN([C@H](C)CO)C(=O)CCCn2nncc2CO[C@@H]1CN(C)S(=O)(=O)c1cn(C)cn1`, the cytotoxicity call in experiment [1] and in experiment [2] was “inactive” in each case. Further, the growth inhibition call in experiment [3] was “inactive”.
As to `OCCNC(=S)NC1CCCC1`, the cytotoxicity call in experiment [1] and in experiment [2] was “inactive” throughout. Also, the growth inhibition call in experiment [3] was “inactive”.
For the compound `CC(=O)C1CCN(C(C)=O)CC1`, the cytotoxicity call in experiment [1] and in experiment [2] was “inactive” throughout. Further, the growth inhibition call in experiment [3] is “inactive”.
Take `C[C@H](CO)N1C[C@H](C)[C@@H](CN(C)S(C)(=O)=O)Oc2ccc(NC(=O)Nc3ccc(F)cc3)cc2C1=O`: the cytotoxicity call in experiment [1] and in experiment [2] was “inactive” each time. Besides, the growth inhibition call in experiment [3] was “inactive”.
Turning to `COc1ccc(C#Cc2ccc3c(c2)[C@]2(C(=O)N3)[C@H](c3ccc(O)cc3)N3[C@H](c4ccccc4)[C@H](c4ccccc4)OC(=O)[C@H]3[C@@H]2C(=O)N2CCc3cc(OC)c(OC)cc3C2)cc1`, the cytotoxicity call in experiment [1] and in experiment [2] was “inactive” in each case. Besides, the growth inhibition call in experiment [3] was “inactive”.
